According to PubChem BioAssay AID651820 (National Center for Advancing Translational Sciences (NCATS), 2012):
Hit rate of the full screen: of about 340,000 compounds, about 12,000 (3.5%) were called active. Inconclusive means that the source gave no clear call. Such entries were picked first, then a sample of the others. Calls follow the shape of the dose curve; as a rule, active = well fitted inhibition curve with a large enough effect; inconclusive = small, poorly fitted or top-dose-only effect, or another doubt; inactive = no such curve, though single readings can be large or run the other way. No potency is given beside an inconclusive call; the fits are too rough.
% is scaled to controls: 0 for no effect and ±100 for the full control effect; potency is read from the fitted curve at half-maximal effect; tags tell the direction and shape of the fitted curve.

Experiment: qHTS Assay for Inhibitors of Hepatitis C Virus (HCV)
Conditions: Huh7.5.1 HCVcc-Cre (HCVcc is cell-culture hepatitis C virus) infection, luciferase reporter, 44 h; activity change, negative = inhibition: at 41.8 µM (top of the series) unless noted
Procedure, shortened: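 Infectious HCVcc-Cre (~0.5 moi) was added to cells just after compound, with cells seeded 4 h earlier at 1,000 per well. Luciferase activity after 44 h culture reported infection; substrate was incubated 15 min at room temperature before reading.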
For `COc1cccc(-n2c(SCC(=O)NCCC3=CCCCC3)nc3n[nH]c(C)c3c2=N)c1`, the Potency was inconclusive [inhibitor, single point]. For `COC(=O)c1cc(C(C)=O)n2ccccc12`, the Potency was inconclusive [inhibitor, single point]. For `Cc1cc(C(F)F)n2nc(C(=O)Nc3sc4c(c3C(N)=O)CCC4)nc2n1`, the Potency was inconclusive [inhibitor, single point]. With `CCCc1cc(=O)oc2c3c(cc(OCC(=O)NCCCn4ccnc4)c12)OC(C)(C)CC3` the Potency was inconclusive [inhibitor, full curve]. In the case of `COc1ccc(OC)c(N2C(=O)CCCC2=O)c1`, the “activity change, negative = inhibition” value is reported as inactive: 12.2%. With `N#C/C(=C/c1ccc(N2CCCCCC2)o1)c1ccc(F)cc1` the Potency was inconclusive [inhibitor, single point]. For `O=C(NCCOc1ccccc1)C(=O)c1c[nH]c2ccccc12`, the “activity change, negative = inhibition” value was inactive: -12.1%. For `CCCN(CCC)C(=O)c1oc2ccccc2c1NC(=O)Cc1cccc(OC)c1`, the Potency was active: 11.2 µM. In the case of `Cc1ccc2nc(SCC(=O)NC3CCCc4ccccc43)[nH]c2c1` (stereo unspecified), the Potency is reported as active: 11.2 µM. With `CCOc1cc(NC(=O)c2ccccn2)c(OCC)cc1NC(=O)c1cccc(C)c1` the Potency was inconclusive [inhibitor, partial curve]. For `CCS(=O)(=O)N1Cc2ccccc2CC1C(=O)N1CCN(c2cccc(C)c2C)CC1` (stereo unspecified), the Potency was inconclusive [inhibitor, single point]. With `O=C1CC(c2ccc(F)cc2)Cc2nc(N3CCOCC3)ncc21` (stereo unspecified) the Potency was inconclusive [inhibitor, single point]. In the case of `C=CCNC(=S)NNC(=O)c1ccc2c(c1)OCO2`, the “activity change, negative = inhibition” value is reported as inactive: -16%. With `COc1cccc(-c2nc(N3CCN(C)CC3)c3ccccc3n2)c1O` the Potency was inconclusive [inhibitor, partial curve]. For `COc1ccc(C(Nc2ccccn2)c2c(NC(=O)c3ccco3)sc(C)c2C)cc1` (stereo unspecified), the Potency was inconclusive [inhibitor, single point]. In the case of `C[C@H](CO)N1C[C@H](C)[C@@H](CN(C)S(=O)(=O)c2ccccc2)Oc2c(NC(=O)Nc3ccc(C(F)(F)F)cc3)cccc2C1=O`, the Potency is reported as inconclusive [inhibitor, single point]. With `CC(=O)C1=C(O)C(=O)N(c2ccc(Br)cn2)C1c1ccc(Br)cc1` (stereo unspecified) the “activity change, negative = inhibition” value was inactive: 2.08%. In the case of `COc1ccccc1OCCCn1c(C)c(C#N)c2ccccc21`, the Potency is reported as inconclusive [inhibitor, single point]. In the case of `Cn1c(N)c(C(=O)COC(=O)C2(c3cccc(F)c3)CCCC2)c(=O)n(C)c1=O`, the Potency is reported as inconclusive [inhibitor, single point]. In the case of `COc1cc(/C=N/NC(=O)c2ccc(N(C)S(=O)(=O)c3ccccc3)cc2)cc(OC)c1OC`, the Potency is reported as inconclusive [inhibitor, full curve, poor fit]. For `Cc1[nH]nc2ccc(-c3cncc(OC[C@@H](N)Cc4c[nH]c5ccccc45)c3)cc12`, the Potency was inconclusive [inhibitor, single point]. For `O=S(=O)(c1ccc(F)cc1)N1CCC(N2CCCC2)CC1`, the Potency was inconclusive [inhibitor, partial curve]. In the case of `CCOc1cc(C(=O)OCC(=O)Nc2ncc(Cl)c(C)c2Cl)ccc1OCC(=O)N1CCOCC1`, the Potency is reported as inconclusive [inhibitor, single point]. With `O=C(NN=C1CCCCCC1)c1cc2ccccc2cc1O` the “activity change, negative = inhibition” value was inactive: 6.55%. In the case of `COc1ccc(-c2ccccc2)cc1NCc1ccccc1C`, the “activity change, negative = inhibition” value is reported as inactive: -15.4%. In the case of `CCCC1=[N+](CC)CCn2c(C)ccc21`, the “activity change, negative = inhibition” value is reported as inactive: 6.27%. For `CCN(CC)Cc1cc(Nc2ccnc3cc(Cl)ccc23)ccc1O`, the Potency was active: 7.94 µM. With `O=C(NNC1=Nc2ccccc2SC1)c1ccccc1F` the Potency was active: 14.1 µM. For `Nc1[nH]n(-c2ccccc2)c(=O)c1N=Nc1ccccc1[N+](=O)[O-]`, the Potency was inconclusive [inhibitor, partial curve]. With `O=C(C[n+]1ccc(C(=O)NCc2ccccc2)cc1)c1ccc2c(c1)OCCO2` the “activity change, negative = inhibition” value was inactive: 7.9%. In the case of `O=C(c1ccc(S(=O)(=O)N2CCCC2)cc1)N1CCN(Cc2ccc3c(c2)OCO3)CC1`, the “activity change, negative = inhibition” value is reported as inactive: -16.5%. With `O=C(Oc1ccccc1OC(=O)N1CCOCC1)N1CCOCC1` the “activity change, negative = inhibition” value was inactive: 17.6%. With `O=S(=O)(c1ccc(-c2cc(C(F)(F)F)on2)s1)N1CCCC1` the “activity change, negative = inhibition” value was inactive: -0.42%. In the case of `Cc1nn(C)cc1CN(C)C(=O)c1nn2c(c1Br)NC(c1cccs1)CC2C(F)(F)F` (stereo unspecified), the “activity change, negative = inhibition” value is reported as inactive: -18.5%. In the case of `Cc1ccccc1-c1ccc(=O)n(CC(=O)Nc2ccc(N3CCOCC3)cc2)n1`, the Potency is reported as inconclusive [inhibitor, full curve, poor fit]. With `COCC(=O)O[C@]1(CCN(C)CCCc2nc3ccccc3[nH]2)CCc2cc(F)ccc2[C@@H]1C(C)C` the Potency was inconclusive [inhibitor, partial curve]. With `Nc1c(C(=O)N/N=C/c2ccc(Cl)cc2)cnn1-c1ccccc1` the “activity change, negative = inhibition” value was inactive: 4.29%. In the case of `COc1cccc(/C=N/NC(=O)c2nnn(-c3nonc3N)c2C(C)C)c1`, the Potency is reported as inconclusive [inhibitor, partial curve]. In the case of `O=C(O)CCCCC1CCSS1` (stereo unspecified), the “activity change, negative = inhibition” value is reported as inactive: 29.1%. In the case of `COc1ccc2nc3n(c(=O)c2c1)-c1ccccc1C(=O)NC3Cc1ccccc1` (stereo unspecified), the “activity change, negative = inhibition” value is reported as inactive: 15.7%. For `O=C(OCc1ccccc1)N1CCC2CC1c1cc(N3CCOCC3)ccc12` (stereo unspecified), the Potency was active: 0.316 µM. For `O=C(Cc1ccc(Cl)cc1)NCC(=O)N1CCN(c2ccccc2)CC1`, the Potency was inconclusive [inhibitor, single point]. With `COc1ccc(NS(=O)(=O)c2ccc(C)c(C(=O)N3CC(C)OC(C)C3)c2)cc1` (stereo unspecified) the Potency was inconclusive [inhibitor, single point]. With `CN(CCOc1ccc(-c2ccn(S(=O)(=O)c3cccc4ccccc34)n2)cc1)c1ccccn1` the Potency was inconclusive [inhibitor, full curve]. With `COc1ccc(-c2c(-c3ccc4c(c3)OCO4)c3ccccc3n2C)cc1` the Potency was inconclusive [inhibitor, partial curve]. In the case of `CN(C)c1ccc(/C=N/NC(=O)c2cc(-c3ccc4c(c3)OCO4)n[nH]2)cc1`, the Potency is reported as inconclusive [inhibitor, single point]. In the case of `CCS(=O)(=O)c1ccc(O)c(NC(=O)COc2ccc(Br)cc2)c1`, the “activity change, negative = inhibition” value is reported as inactive: 5.85%. For `CCOC(=O)COc1ccc(/C=C2/SC(=Nc3ccccc3)N(Cc3cccnc3)C2=O)cc1OC`, the Potency was inconclusive [inhibitor, partial curve, poor fit]. For `COc1ccc2sc(-c3ccccc3OC)c(-c3ccc(OC)c(F)c3)c2c1`, the Potency was inconclusive [inhibitor, partial curve, poor fit]. For `Cc1cc(-c2ccccc2)n2nc(C)c(-c3ccccc3)c2n1`, the Potency was inconclusive [inhibitor, single point]. For `Nc1nc(Nc2ccccc2Br)nc(C(F)(F)F)n1`, the Potency was inconclusive [inhibitor, single point]. With `O=C(Nc1ccccc1N1CCCCC1)C1CCN(S(=O)(=O)c2ccccc2C(F)(F)F)CC1` the Potency was inconclusive [inhibitor, single point]. In the case of `COc1cc2cc(C)c(SCC(=O)N3CCN(C(=O)c4ccco4)CC3)nc2cc1OC`, the activity change, negative = inhibition is reported as inconclusive: -41.5% [inhibitor]. In the case of `O=C(NNc1c2ccccc2nc2ccccc12)c1ccc(O)cc1O`, the Potency is reported as inconclusive [inhibitor, partial curve, poor fit]. For `O=c1c2c3c(sc2n(CCN2CCCC2)c(=O)n1Cc1ccco1)CCCCC3`, the Potency was active: 10 µM. For `CCc1nnc(NC(=O)CSc2nnc(C(C)NC(=O)c3ccccc3F)n2C)s1` (stereo unspecified), the “activity change, negative = inhibition” value was inactive: 8.67%. With `CC(C)CNc1ncnc2c1cnn2Cc1ccc(Cl)cc1` the Potency was inconclusive [inhibitor, partial curve]. In the case of `Cc1cc(OC(C)C(=O)NCc2ccncc2)c2c3c(c(=O)oc2c1)CCC3` (stereo unspecified), the Potency is reported as inconclusive [inhibitor, partial curve]. For `O=C(CCCCCn1nnc2ccccc2c1=O)Nc1ccccc1Cl`, the “activity change, negative = inhibition” value was inactive: -8.39%. In the case of `Cc1ccc2nc(NC(=O)C3CCCN(S(=O)(=O)c4cccc5nsnc45)C3)sc2c1` (stereo unspecified), the Potency is reported as active: 11.2 µM. In the case of `O=C(c1ccco1)N1CCN(C(=S)Nc2ccccc2C(F)(F)F)CC1`, the Potency is reported as inconclusive [inhibitor, single point]. In the case of `CCOC(=O)c1c(NCc2ccccc2)n[nH]c1C`, the “activity change, negative = inhibition” value is reported as inactive: -12.1%. With `CC(C)CN(C(=O)COC(=O)/C=C/c1ccc(Cl)c(Cl)c1)c1c(N)n(Cc2ccccc2)c(=O)[nH]c1=O` the Potency was inconclusive [inhibitor, single point]. With `CCC(C)C(NC(=O)C1CCC(C)CC1)C(=O)NCCCN1CCCCC1CC` (stereo unspecified) the Potency was inconclusive [inhibitor, full curve]. In the case of `CCCCn1c(N)c(N(CCC(C)C)C(=O)c2ccc(-c3ccc([N+](=O)[O-])cc3)o2)c(=O)[nH]c1=O`, the Potency is reported as inconclusive [inhibitor, single point]. For `CCOc1c(Cl)cc(C(=O)NCCN2CCCCC2)cc1Cl`, the Potency was active: 10 µM. For `COc1ccc(N2C(=O)c3cccc4c(N(C)CCO)ccc(c34)C2=O)cc1`, the Potency was inconclusive [inhibitor, partial curve]. For `COc1ccc(N2CCN(C(=O)C3CCN(S(=O)(=O)c4ccc5c(c4)oc(=O)n5C)CC3)CC2)cc1`, the “activity change, negative = inhibition” value was inactive: 2.17%. With `Cc1ccc(NC(=O)C2=C(c3ccccc3)S(=O)(=O)CCS2(=O)=O)cc1` the Potency was active: 11.2 µM. In the case of `COCCn1c(SCC(=O)N2CCCC2)nnc1-c1ccco1`, the “activity change, negative = inhibition” value is reported as inactive: 5.09%. In the case of `Cc1cccc(NC(=O)NCc2ccccn2)c1`, the “activity change, negative = inhibition” value is reported as inactive: -0.882%.
